Data as given in PubChem BioAssay AID488969 (Vanderbilt High Throughput Screening Facility, 2010).
The full ranking holds about 110,000 compounds; the median of “z-score” is about -0.1, and the highest 2% start at about 2. The list shows a part of the results. Active and inactive are the calls of the source.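 The calls were made as follows: active = z-score in the third read window above 3 or below -3; inactive = the rest.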

Each molecule was assayed against Metabotropic glutamate receptor 8 (Rattus norvegicus) (UniProt P70579) (assay: mGluR8 Gi/Go-coupled signaling modulation – cell-based, rat, thallium flux, HTS, primary screen (AID 488969)). Settings: HEK293 rat mGluR8, GIRK (G protein-gated inwardly rectifying potassium channel) thallium flux, FluoZin2; at 10 µM; stronger effect = higher value; submaximal glutamate (EC20) added with thallium.
Chain of UniProt P70579 (P70579 whole entry, looked up): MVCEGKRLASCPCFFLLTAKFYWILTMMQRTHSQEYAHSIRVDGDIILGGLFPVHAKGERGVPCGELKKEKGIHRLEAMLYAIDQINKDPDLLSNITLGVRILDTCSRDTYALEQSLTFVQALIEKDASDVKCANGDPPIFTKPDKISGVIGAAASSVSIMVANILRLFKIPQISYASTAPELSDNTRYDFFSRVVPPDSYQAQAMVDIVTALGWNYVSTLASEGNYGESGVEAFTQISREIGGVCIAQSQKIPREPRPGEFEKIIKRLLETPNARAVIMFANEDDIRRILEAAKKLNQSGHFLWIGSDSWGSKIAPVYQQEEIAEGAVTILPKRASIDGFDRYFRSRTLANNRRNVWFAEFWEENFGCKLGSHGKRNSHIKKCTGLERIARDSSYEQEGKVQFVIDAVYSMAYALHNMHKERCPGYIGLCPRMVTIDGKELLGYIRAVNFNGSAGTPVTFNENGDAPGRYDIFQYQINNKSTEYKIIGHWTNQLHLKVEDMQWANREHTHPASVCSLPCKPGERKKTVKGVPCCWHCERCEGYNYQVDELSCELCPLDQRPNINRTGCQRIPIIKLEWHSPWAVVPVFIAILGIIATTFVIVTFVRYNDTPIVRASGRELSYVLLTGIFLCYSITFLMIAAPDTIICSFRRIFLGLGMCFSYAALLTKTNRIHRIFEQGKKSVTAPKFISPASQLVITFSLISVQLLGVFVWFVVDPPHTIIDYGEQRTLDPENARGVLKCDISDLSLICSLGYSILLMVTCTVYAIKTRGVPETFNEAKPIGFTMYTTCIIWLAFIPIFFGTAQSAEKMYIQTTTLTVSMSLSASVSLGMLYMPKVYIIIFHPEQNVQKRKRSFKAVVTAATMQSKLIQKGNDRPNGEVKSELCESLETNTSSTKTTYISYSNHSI
With COc1ccc(OC(C)C(=O)N2CCOCC2)cc1 (configuration not stated) the z-score was -0.0426.
Molecule Cc1nn(Cc2ccccc2Cl)c(Cl)c1C(=O)NCCc1ccccc1 has a z-score of -0.233.
O=C(COC(=O)c1cc(Cl)nc2ccccc12)c1ccc(Cl)cc1 gave a z-score of -0.0843.
CC(C)=CCc1c(O)ccc(C(=O)Cc2ccccc2)c1O showed a z-score of -0.128.
CCOc1ccc(C(=O)N2CCN(C(=O)c3ccco3)CC2)cc1OCC showed a z-score of -0.298.
COCCn1c(-c2ccccc2)cnc1N was tested, and the z-score was 0.0486.
In the case of Cn1c(=O)c2c(nc(Oc3ccc4c(c3)OCO4)n2Cc2ccc(Cl)cc2)n(C)c1=O, the z-score is reported as -0.42.
Molecule Cc1nc(-c2ccccc2)sc1-c1n[nH]c(=S)n1C has a z-score of 0.154.
With CCN1C(=C2C(=O)c3ccccc3C2=O)C=Cc2ccccc21 the z-score was -0.00147.
In the case of Nc1ccc(C(=O)N/N=C/c2sc(N3CCOCC3)nc2-c2ccccc2)cc1, the z-score is reported as -0.348.
CCOC(=O)N1CCN(C(=O)c2cc3cc(Br)ccc3oc2=O)CC1 was tested, and the z-score was -0.271.
O=C(N/N=C/c1c[nH]c2ccccc12)c1cc(-c2cccc3ccccc23)n[nH]1 gave a z-score of -0.463.
In the case of CC(CCc1ccccc1)NC(=O)c1nnc(Cc2ccc(Cl)cc2)o1 (configuration not stated), the z-score is reported as -1.43.
Cc1cc(Nc2ccccc2)nn1C(=O)c1ccc(Br)cc1 showed a z-score of -0.495.
CCN(CC)C(=S)SCC(=O)Nc1cccc(C(F)(F)F)c1 showed a z-score of -0.563.
Cc1ccc(CN2C(=O)CCC2C(=O)NCCCN2CCC(C)CC2)cc1 (configuration not stated) was tested, and the z-score was 0.511.
With COc1ccc(C(=O)Nc2ccc(Cl)c(Cl)c2)c(OC)n1 the z-score was -0.192.
CC(C)(C)n1nnnc1CN1CCSCC1 showed a z-score of -0.0956.
Cn1c(=O)[nH]c(=O)c2c1nc(CN1CCN(c3cccc(Cl)c3)CC1)n2CCc1ccccc1 gave a z-score of -1.19.
With NC(N)=NS(=O)(=O)c1ccc(NC(=S)NC(=O)c2sc3ccccc3c2Cl)cc1 the z-score was 0.0467.
CC(=NCCCN(C)C)C1=C(O)c2ccccc2C1=O showed a z-score of 0.45.
For O=C(NCc1cccnc1)c1ccc(Cl)c(Cl)c1, the z-score was -0.249.
Work on C=CCNC(=S)NNC(=O)c1ccc(OCCC)cc1 yielded a z-score of 0.095.
With CCS(=O)(=O)Nc1ccc(C(=O)CC2(O)C(=O)Nc3ccc(Br)cc32)cc1 (configuration not stated) the z-score was 0.864.
CCCc1cc(=O)oc2cc(C)cc(OC(=O)c3ccco3)c12 was tested, and the z-score was 0.95.
Work on CCN(CC)S(=O)(=O)c1cccc(C(=O)N/N=C/c2ccc(OC)c(O)c2)c1 yielded a z-score of -0.0726.
Work on CC(C)CN(CC(C)C)C(=O)C12CCC(C)(C(=O)O1)C2(C)C (configuration not stated) yielded a z-score of -0.086.
For CCCOc1ccc(C2C(C(=O)c3ccco3)=C(O)C(=O)N2CCCn2ccnc2)cc1 (configuration not stated), the z-score was -0.201.
Molecule CC(=O)Nc1c(O)nc(SCC(=O)Nc2ccc(C(C)=O)cc2)[nH]c1=O has a z-score of 0.0952.
For CCCCn1c(-c2csc3c2CCCC3)n[nH]c1=S, the z-score was active: 6.19.
Molecule CCOC(=O)c1c(N)sc(C(O)(C(F)(F)F)C(F)(F)F)c1-c1ccc(OC)cc1OC has a z-score of -1.15.
In the case of CC1CCN(c2ncccc2C(=O)O)CC1, the z-score is reported as active: 4.14.
CCOC(=O)CNC(=O)c1ccc(C#CC2(O)CCCCC2)cc1 gave a z-score of 0.063.
For O=C(CCN1CCN(C/C=C/c2ccccc2)CC1)Nc1ccccc1, the z-score was 1.18.
Work on CCC(C)C(NC(=O)c1ccccc1NC(=O)c1ccco1)C(=O)NNC(=O)c1ccc(OC)cc1 (configuration not stated) yielded a z-score of -0.0885.
O=C(NCCCn1ccnc1)C(=O)NCc1ccc(Cl)cc1 was tested, and the z-score was 0.217.
O=C(COc1ccc(CO)cc1)Nc1ccc(F)cc1 showed a z-score of -0.22.
For C/C(=N/NC(=O)c1cccs1)c1c(C)[nH]n(-c2nc3ccccc3s2)c1=O, the z-score was -0.348.
In the case of COc1ccc(-n2c(SC3CCOC3=O)nc3ccccc3c2=O)cc1OC (configuration not stated), the z-score is reported as 0.147.
O=C(c1ccc(Cl)s1)N1CCc2ccccc21 gave a z-score of 0.0123.
With CCOn1c(=O)c(-c2cccc([N+](=O)[O-])c2)[n+]([O-])c2ccccc21 the z-score was -0.235.
Nc1ccc(Cl)c(NC(=O)c2cccs2)c1 was tested, and the z-score was 0.326.
For CCCCOC(=O)c1[nH]c(C)c(C(=O)OC)c1C, the z-score was -0.217.
COc1ccc(NC(=O)Cn2nnc(-c3ccccc3F)n2)cc1Cl showed a z-score of 0.202.
CCOc1cccc(-c2cc(-c3n[nH]c(=S)n3CC)c3ccccc3n2)c1 was tested, and the z-score was 2.09.
Molecule C=CCOc1ccc(C=Nc2cccc(Cl)c2)c(O)c1 has a z-score of -0.435.
Molecule CCCCSc1cc(C)nc2ncnn12 has a z-score of 1.8.
Molecule COc1ccc(/C=N/N2CCN(C)CC2)cc1OC has a z-score of -0.0951.
Cc1nc2ccc(S(=O)(=O)NCC(=O)N3CCCCC3)cc2s1 gave a z-score of -0.09.
CC1(C)C(c2ccccc2)=[N+]([O-])C2(CCCCC2=O)N1O (configuration not stated) was tested, and the z-score was -0.0231.
Cc1cccc2nc(CSc3ccccc3N)cn12 gave a z-score of -0.0426.
With CC(=O)c1c(C(C)=O)c(C)n(-c2ccc(O)cc2)c1C the z-score was -0.481.
For Cc1cc(OC2CCCCC2)nc(-c2ccccc2O)n1, the z-score was 0.368.
CSc1ccn(CCC(=O)O)c(=O)n1 gave a z-score of -0.489.
With O=C(Cn1cnc2c(oc3ccccc32)c1=O)NCc1ccccc1 the z-score was -0.449.
For COc1cccc(CSc2nnc(CSc3nc4nc(C)cc(C)n4n3)s2)c1, the z-score was -0.0954.
Molecule Cc1ccc(S(=O)(=O)N2CCN(Cc3nc4ccccc4n3C)CC2)cc1 has a z-score of -0.608.
With Cc1nnc(SCCn2c(N3CCN(C)CC3)nc3c2c(=O)n(C)c(=O)n3C)s1 the z-score was -0.135.
Molecule COc1ccc(C2C(C(=O)Nc3cccc(C)n3)c3ccccc3C(=O)N2C)cc1OC (configuration not stated) has a z-score of -0.119.
COc1ccccc1-c1cn(S(=O)(=O)c2ccc(C)cc2)nc1N was tested, and the z-score was 0.0429.
Molecule O=C(N/N=C/c1ccncc1)c1cc([N+](=O)[O-])cc([N+](=O)[O-])c1O has a z-score of -0.0942.
With O=C(c1ccccn1)c1ncc(C(F)(F)F)cc1Cl the z-score was 0.011.
Molecule CCS(=O)(=O)N1CCCC(C(=O)NCc2cccnc2)C1 (configuration not stated) has a z-score of 0.215.
In the case of Cc1cc(NC(=O)C2CC(c3ccc(F)cc3)=NO2)n(-c2ccccc2)n1 (configuration not stated), the z-score is reported as 0.0546.
For COC(=O)c1ccc(CSc2nc3ccc(S(=O)(=O)N4CCOCC4)cc3[nH]2)cc1, the z-score was -0.624.
In the case of COc1ccc(C(CC(=O)Nc2ccc(F)cc2)c2ccccc2)cc1 (configuration not stated), the z-score is reported as 1.4.
For CN(C)c1ccc(S(=O)(=O)c2ccc(Cl)cc2)cc1, the z-score was 0.192.
In the case of CC1(C)OC(=O)C(=CNc2ccccc2)C(=O)O1, the z-score is reported as -0.381.
For COCCCN1C(=O)c2ccc(C(=O)NCc3ccco3)cc2C1=O, the z-score was -0.549.
Molecule COc1cccc(C2Nc3cc(Cl)c(S(N)(=O)=O)cc3S(=O)(=O)N2)c1 (configuration not stated) has a z-score of 0.231.
CCCN1C2=NCCCN2c2ccccc21 showed a z-score of 0.397.
CS(=O)(=O)N(CC(=O)NC1CC1)c1cccc(F)c1 gave a z-score of 0.469.
Work on N/C(=N\OC(=O)c1ccc(Cl)cc1)c1ccc(Cl)cc1 yielded a z-score of -0.177.
In the case of CC(=O)c1cc(-c2ccccc2)n(CC(=O)N2CCC(N3CCCCC3)CC2)c1C, the z-score is reported as -0.319.
Molecule COc1ccc2c(c1)c(CC(=O)Nc1ccccc1OC)c(C)n2C(=O)c1ccc(Cl)cc1 has a z-score of -0.262.
COc1ccc(C(=O)C[n+]2cccc(C)c2)cc1 gave a z-score of -0.433.
Molecule O=C(NCc1ccncc1)/C(=C\c1ccc(F)cc1)NC(=O)c1ccccc1 has a z-score of -0.756.
In the case of c1ccc(-c2nc3ccccc3s2)nc1, the z-score is reported as -0.0256.
Work on COC(=O)COc1ccc(S(=O)(=O)NCc2cccnc2)cc1C yielded a z-score of 0.343.
For CC(C)(C)OC(=O)NCC(=O)Oc1cc2oc(=O)cc(-c3ccccc3)c2cc1Cl, the z-score was 0.109.
For CC(=O)NCCC(=O)NCc1ccc(F)cc1, the z-score was -0.138.
With COc1cccc(S(=O)(=O)NCc2ccc(C(=O)Nc3cccc(Cl)c3)cc2)c1 the z-score was -0.232.
Molecule Cc1ccccc1N1C(N)=NC(N)=NC1(C)C has a z-score of -0.257.
Molecule Cc1c([N+](=O)[O-])ccc(S(=O)(=O)N2CCC(C(N)=O)CC2)c1C has a z-score of 0.0595.
In the case of Nc1cc(OC(=O)c2cccs2)nn1S(=O)(=O)c1ccc(F)cc1, the z-score is reported as -1.06.
COc1ccc(NC(=S)NCCc2ccccc2)c(OC)c1 gave a z-score of -0.465.
Cc1ccc(NS(=O)(=O)c2ccc(NC(=O)c3cccs3)cc2)c(C)c1 was tested, and the z-score was -0.181.
Molecule CSc1n[nH]c2nc3c(c(=O)n12)C1(CCCC1)Cc1ccccc1-3 has a z-score of -0.528.
In the case of O=C(Nc1ccccc1-c1ccccc1)c1cc(C(F)(F)F)cc(C(F)(F)F)c1, the z-score is reported as -0.214.
CCOC(=O)C1=C(Cc2ccc(Cl)cc2)C(=O)c2ccccc2C1=O gave a z-score of 0.281.
For O=C(Oc1ccc2ccccc2c1)c1ccccc1, the z-score was 1.11.
For O=S(=O)(c1cccc(NC(=S)N2CCN(c3ccccc3F)CC2)c1)C(F)F, the z-score was -0.392.
With COc1ccc(C(=O)c2sc3nc(C)cc(-c4cccs4)c3c2N)cc1 the z-score was -0.662.
Molecule Cc1cc(C)c(OCC(=O)Nc2cccc(O)c2)cc1C has a z-score of 0.575.
Molecule CCN(CC)c1ccc(/C=N\NC(N)=O)cc1 has a z-score of -0.251.
Cc1cccc(N2CCN(S(=O)(=O)c3c(C)[nH]c(=O)[nH]c3=O)CC2)c1C showed a z-score of -0.311.
Work on CCC(c1nnnn1CCOC)N(Cc1cc2c(C)cc(C)cc2[nH]c1=O)CC1CCCO1 (configuration not stated) yielded a z-score of -0.203.
Work on CC1=C(C(=O)Nc2ccc(Cl)cc2)C(c2ccncc2)C(C#N)=C(SCC(N)=O)N1 (configuration not stated) yielded a z-score of -0.161.
In the case of COc1c(F)c(F)c(C(=O)Nc2ccccc2N2CCN(C(C)=O)CC2)c(F)c1F, the z-score is reported as -0.155.
CCOC(=O)N1CCN(C(=O)CN(c2cc(Cl)ccc2OC)S(=O)(=O)c2ccccc2)CC1 was tested, and the z-score was -0.359.
Work on CCCCc1c(C)nn(-c2nnc3c4ccccc4n(C)c3n2)c1C yielded a z-score of 0.143.
Molecule CCCOc1ccc(/C=C/C(=O)Nc2ccc([N+](=O)[O-])cc2)cc1 has a z-score of -0.106.
CN(C)CCNC(=O)C1CC(=O)N(c2ccc(F)c(Cl)c2)C1 (configuration not stated) was tested, and the z-score was 0.215.
Work on N#CC1=C2SCN(Cc3ccco3)CN2C(=O)CC1c1c(F)cccc1Cl (configuration not stated) yielded a z-score of -0.326.
CCOc1ccc(-c2nn[nH]n2)cc1OCC showed a z-score of -0.435.
In the case of Cn1nc(CC(=O)Nc2cccc3ncccc23)c2ccccc2c1=O, the z-score is reported as 2.01.
In the case of O=C(C1CCCO1)N1CCN(C(=S)Nc2ccc(Cl)cc2)CC1 (configuration not stated), the z-score is reported as 0.538.
Molecule CCOc1cccc(OCCn2cnc3ccccc3c2=O)c1 has a z-score of -0.0247.
With CC(=O)Nc1ccc(S(=O)(=O)N(C)CC(=O)Nc2ccccc2N2CCOCC2)cc1 the z-score was -0.0453.
Cc1cc(Cl)c(S(=O)(=O)N2CCCC2)cc1OCC(=O)NC1CCCCC1 gave a z-score of -0.525.
CCOC(=O)N1CCC(n2c(SCC(=O)c3ccccc3)nc3ccsc3c2=O)CC1 gave a z-score of 0.366.
For O=C(O)CCN=C1CCc2ccccc2N1, the z-score was -0.0864.
